Among the data in PMC5700166 are binding signal values, retold here.

The list shows a part of the results, in another mix than the full data. The list includes weakly bound sequences.

The experiment deals with T1, GST-Co-NF-kB (UniProt F1ARL5).
T1 sequence: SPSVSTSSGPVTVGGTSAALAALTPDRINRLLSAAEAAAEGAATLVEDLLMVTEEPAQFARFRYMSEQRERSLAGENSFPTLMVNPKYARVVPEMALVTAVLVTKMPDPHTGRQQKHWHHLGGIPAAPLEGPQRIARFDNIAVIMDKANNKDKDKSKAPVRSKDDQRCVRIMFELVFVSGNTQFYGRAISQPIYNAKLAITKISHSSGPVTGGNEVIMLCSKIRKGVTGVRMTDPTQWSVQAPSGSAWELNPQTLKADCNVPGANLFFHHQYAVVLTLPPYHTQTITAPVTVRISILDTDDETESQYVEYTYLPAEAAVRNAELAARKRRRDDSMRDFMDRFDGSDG
The experiment in a line: protein-binding microarray (PBM). The note with it: PBM: ~300 nM protein, 6 mM HEPES pH 7.8, 80 mM KCl, 0.5 mM EDTA, 0.5 mM EGTA, 6% glycerol, 35 ng/ul poly-dIdC, 1% milk, 1 h, room temperature; Ap Aiptasia and Nv Nematostella (sea anemones) / Co Capsaspora / Aq Amphimedon (sponge) / Dm Drosophila / Hu human; RHD is the Rel homology domain; high values mean tight binding; most listed sequences are background and not binding sites; double strand, one strand shown.
Sequence “CCGATTAACATCAAGGAATGTCCTGATGTTAATCGGGTCTTGATTCGCTTGACGCTGCTG” displayed a binding signal of 0.0783 z-score.

As for “CCGATTAACATCAAGGAGTTTCCTGATGTTAATCGGGTCTTGATTCGCTTGACGCTGCTG”, the binding signal turned out to be 0.0583 z-score.

“CCGATTAACATCAGAGAATTTCCTGATGTTAATCGGGTCTTGATTCGCTTGACGCTGCTG” returned a binding signal of 0.207 z-score.

Sequence “CCGATTAACATCACGGCATTTCCTGATGTTAATCGGGTCTTGATTCGCTTGACGCTGCTG” yielded a binding signal of -0.00453 z-score.

“CCGATTAACATCAGGATTTGCCCTGATGTTAATCGGGTCTTGATTCGCTTGACGCTGCTG” displayed a binding signal of 0.281 z-score.

“CCGATTAACATCAAGGAACTTCCTGATGTTAATCGGGTCTTGATTCGCTTGACGCTGCTG” had a binding signal of 0.0178 z-score.

For “CCGATTAACATCAAGGAATCTCCTGATGTTAATCGGGTCTTGATTCGCTTGACGCTGCTG”, the binding signal is -0.787 z-score.

“CCGATTAACATCAGGAATGTCCATGATGTTAATCGGGTCTTGATTCGCTTGACGCTGCTG” came in with a binding signal of -0.635 z-score.

In the case of “CCGATTAACATCAAAAAATCTCCTGATGTTAATCGGGTCTTGATTCGCTTGACGCTGCTG”, the binding signal is 0.729 z-score.

In turn, “CCGATTAACATCACGGAAAGTACTGATGTTAATCGGGTCTTGATTCGCTTGACGCTGCTG” had a binding signal of 0.77 z-score.

“CCGATTAACATCACGGACTGTCCTGATGTTAATCGGGTCTTGATTCGCTTGACGCTGCTG” had a binding signal of -0.58 z-score.

“CCGATTAACATCAAGGGGGTTTCTGATGTTAATCGGGTCTTGATTCGCTTGACGCTGCTG” returned a binding signal of 2.34 z-score.

“CCGATTAACATCACGGACTTTCCTGATGTTAATCGGGTCTTGATTCGCTTGACGCTGCTG” came in with a binding signal of -0.24 z-score.

“CCGATTAACATCACGGCTTTTCCTGATGTTAATCGGGTCTTGATTCGCTTGACGCTGCTG”: the binding signal is -0.249 z-score.

In turn, “CCGATTAACATCAGGAATTTTCATGATGTTAATCGGGTCTTGATTCGCTTGACGCTGCTG” returned a binding signal of -0.0386 z-score.

The sequence “CCGATTAACATCAGAATTTCCGCTGATGTTAATCGGGTCTTGATTCGCTTGACGCTGCTG” showed a binding signal of -0.385 z-score.

Sequence “CCGATTAACATCAACAAAATTCCTGATGTTAATCGGGTCTTGATTCGCTTGACGCTGCTG” returned a binding signal of 0.862 z-score.

“CCGATTAACATCATAATGGGAAATGATGTTAATCGGGTCTTGATTCGCTTGACGCTGCTG” showed a binding signal of 1.93 z-score.

“CCGATTAACATCAAAAATCCGGTTGATGTTAATCGGGTCTTGATTCGCTTGACGCTGCTG” gave a binding signal of -0.726 z-score.

Regarding “CCGATTAACATCAGGAATTTACCTGATGTTAATCGGGTCTTGATTCGCTTGACGCTGCTG”, the binding signal is -0.159 z-score.

As to “CCGATTAACATCAGGAAATATCCTGATGTTAATCGGGTCTTGATTCGCTTGACGCTGCTG”, the binding signal is -0.51 z-score.

“CCGATTAACATCAGGTTATTCCATGATGTTAATCGGGTCTTGATTCGCTTGACGCTGCTG” gave a binding signal of -0.232 z-score.

The sequence “CCGATTAACATCAAAAATTCCTATGATGTTAATCGGGTCTTGATTCGCTTGACGCTGCTG” returned a binding signal of 0.16 z-score.

On to “CCGATTAACATCAAAATTTCCGCTGATGTTAATCGGGTCTTGATTCGCTTGACGCTGCTG”, for which the binding signal came out at 0.305 z-score.

In turn, “CCGATTAACATCAAAATTTCCGTTGATGTTAATCGGGTCTTGATTCGCTTGACGCTGCTG” registered a binding signal of 0.537 z-score.

Regarding “CCGATTAACATCAGCGGAAATCCTGATGTTAATCGGGTCTTGATTCGCTTGACGCTGCTG”, the binding signal was determined as 0.175 z-score.

For “CCGATTAACATCAGGACATTCCATGATGTTAATCGGGTCTTGATTCGCTTGACGCTGCTG”, the binding signal turned out to be 0.116 z-score.

“CCGATTAACATCAAACCCTACTGTGATGTTAATCGGGTCTTGATTCGCTTGACGCTGCTG” showed a binding signal of 0.776 z-score.

“CCGATTAACATCAGAGAAATTCCTGATGTTAATCGGGTCTTGATTCGCTTGACGCTGCTG” registered a binding signal of -0.475 z-score.

“CCGATTAACATCAAGTACTTTCCTGATGTTAATCGGGTCTTGATTCGCTTGACGCTGCTG”: the binding signal is -0.199 z-score.

As for “CCGATTAACATCATGAAGACCCCTGATGTTAATCGGGTCTTGATTCGCTTGACGCTGCTG”, the binding signal was determined as 0.156 z-score.

Consider “CCGATTAACATCAGGAAATTTACTGATGTTAATCGGGTCTTGATTCGCTTGACGCTGCTG”, for which the binding signal stood at 0.222 z-score.

“CCGATTAACATCAGAAATGCCCATGATGTTAATCGGGTCTTGATTCGCTTGACGCTGCTG” gave a binding signal of 0.871 z-score.

For “CCGATTAACATCATGTTGGGAAATGATGTTAATCGGGTCTTGATTCGCTTGACGCTGCTG”, the binding signal is 2.51 z-score.

Sequence “CCGATTAACATCAGGAAAAGTACTGATGTTAATCGGGTCTTGATTCGCTTGACGCTGCTG” had a binding signal of 0.334 z-score.

In the case of “CCGATTAACATCAGGAATCGCCCTGATGTTAATCGGGTCTTGATTCGCTTGACGCTGCTG”, the binding signal was 0.0732 z-score.

As to “CCGATTAACATCATCCGCGGGAGTGATGTTAATCGGGTCTTGATTCGCTTGACGCTGCTG”, the binding signal was found to be 1.38 z-score.

The sequence “CCGATTAACATCAAAAATATTCCTGATGTTAATCGGGTCTTGATTCGCTTGACGCTGCTG” showed a binding signal of 0.0926 z-score.

The sequence “CCGATTAACATCAGAAATTACCATGATGTTAATCGGGTCTTGATTCGCTTGACGCTGCTG” displayed a binding signal of 0.956 z-score.

“CCGATTAACATCAGAAACTTTCCTGATGTTAATCGGGTCTTGATTCGCTTGACGCTGCTG” came in with a binding signal of -0.146 z-score.
